# Hit rate of the full screen: of about 310,000 compounds, about 14,000 (4.5%) showed an effect of 50% or more. Effects have a minus sign here. The list shows a part of the results.
# Molecular target: human ether-à-go-go-related gene (hERG) potassium channel (human, UniProt Q12809)
# Assay: primary screen, population patch clamp on CHO cells stably expressing hERG
# 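Note: peak tail current of the secondary pulse compared with the same well before compound.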
# Sequence of human ether-à-go-go-related gene (hERG) potassium channel (Q12809 whole entry, looked up): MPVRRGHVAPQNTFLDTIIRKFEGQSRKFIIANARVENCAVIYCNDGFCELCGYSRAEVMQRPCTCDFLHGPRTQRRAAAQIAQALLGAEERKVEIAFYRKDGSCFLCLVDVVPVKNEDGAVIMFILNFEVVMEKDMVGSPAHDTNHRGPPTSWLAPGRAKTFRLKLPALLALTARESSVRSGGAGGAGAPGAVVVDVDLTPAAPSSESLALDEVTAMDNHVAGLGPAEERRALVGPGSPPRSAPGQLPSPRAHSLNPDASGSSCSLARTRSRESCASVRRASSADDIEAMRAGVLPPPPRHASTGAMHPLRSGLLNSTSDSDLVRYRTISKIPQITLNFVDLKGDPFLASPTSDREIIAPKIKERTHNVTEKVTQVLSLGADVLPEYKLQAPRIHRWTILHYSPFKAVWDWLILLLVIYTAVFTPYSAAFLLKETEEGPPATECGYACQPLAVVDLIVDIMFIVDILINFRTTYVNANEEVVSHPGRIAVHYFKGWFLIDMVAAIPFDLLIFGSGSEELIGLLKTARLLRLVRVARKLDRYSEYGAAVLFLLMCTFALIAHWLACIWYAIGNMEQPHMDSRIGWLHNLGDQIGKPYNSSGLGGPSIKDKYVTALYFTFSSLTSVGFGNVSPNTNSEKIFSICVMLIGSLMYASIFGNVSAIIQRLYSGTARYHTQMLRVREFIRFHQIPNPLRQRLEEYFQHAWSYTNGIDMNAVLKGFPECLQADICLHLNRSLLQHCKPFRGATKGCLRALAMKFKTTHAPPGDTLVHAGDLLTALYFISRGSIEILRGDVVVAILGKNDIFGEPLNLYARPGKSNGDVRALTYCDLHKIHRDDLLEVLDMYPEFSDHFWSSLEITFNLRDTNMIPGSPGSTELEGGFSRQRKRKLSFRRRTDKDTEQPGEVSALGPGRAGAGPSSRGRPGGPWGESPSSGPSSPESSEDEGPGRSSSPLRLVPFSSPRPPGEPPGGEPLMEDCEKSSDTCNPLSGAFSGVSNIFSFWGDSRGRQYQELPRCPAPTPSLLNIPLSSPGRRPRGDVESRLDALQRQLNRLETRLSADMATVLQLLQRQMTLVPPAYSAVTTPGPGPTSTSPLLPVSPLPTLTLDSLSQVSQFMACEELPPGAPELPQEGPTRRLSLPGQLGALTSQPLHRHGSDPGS
row,SMILES,"hERG current change (%, negative = inhibition) at 10uM [%]"
1,Cc1nn(Cc2ccc(Cl)cc2Cl)c(Cl)c1C(=O)NC1CCCc2ccccc21 (stereo not drawn),-6.34
2,COc1ccc(S(=O)(=O)N2CCOC2CNC(=O)C(=O)NCc2ccncc2)cc1 (stereo not drawn),3.26
3,CCOC(=O)c1c(C)oc2c(CC(=O)c3ccccc3)c(Cl)c(O)c(O)c12,-9.42
4,CCOC(=O)C1CCN(C(=O)c2cccs2)CC1,12
5,CCn1cc(S(=O)(=O)Nc2cc(F)ccc2C)cn1,11.7
6,CC(=O)Nc1ccc(S(=O)(=O)NC2CCS(=O)(=O)C2)cc1Cl (stereo not drawn),1.14
7,COc1cc(C(=O)NCC(=O)OCn2nnc3ccccc3c2=O)cc(OC)c1OC,16.9
8,CC(=O)COc1ccc(-c2csnn2)cc1,8.01
9,COc1cccc(NC(=O)COC(=O)c2c(F)cccc2F)c1,-1.53
10,COc1ccc(NS(=O)(=O)c2ccc(N3CCOCC3)c(NC(=O)c3ccc(F)cc3)c2)cc1,-13
11,O=C(O)CC/C(=N\NC(=O)c1ccc(F)cc1)c1ccc(Br)cc1,4.33
12,Cc1cc(N=NC(=O)c2ccccc2O)c2ccccc2c1O,3.93
13,O=C1CN(C(=O)COC(=O)C2CC(=O)N(Cc3ccco3)C2)c2ccccc2N1 (stereo not drawn),-7.99
14,Cc1ccc(NC(=O)CSc2nnc(CNC(=O)c3ccccc3F)o2)cc1Cl,5.07
15,Cc1ccccc1NC(=S)N(CCN(C)C)C(C)c1ccccn1 (stereo not drawn),-8.78
16,O=C(NCCc1cccc(C(F)(F)F)c1)C1CCC(=O)N(C2CC2)C1 (stereo not drawn),3.12
17,O=C(CSc1nnc(COc2ccccc2)o1)Nc1nccs1,7.97
18,CS(=O)(=O)N1CCC(C(=O)Nc2ccc(OCc3ccccc3)cc2)CC1,-0.722
19,CC(=O)N1c2ccc(S(=O)(=O)N3CCC(C(=O)NCc4ccc(Cl)cc4)CC3)cc2CC1C (stereo not drawn),-0.255
20,O=S(=O)(NCCc1ccccc1)c1ccc(Br)s1,4.74
21,CC(=O)c1ccc(N2CCN(CC(=O)Nc3cc(C)on3)CC2)cc1,-7.9
22,COc1ccc([N+](=O)[O-])cc1NS(=O)(=O)c1cc(C(=O)NCc2cccnc2)ccc1Cl,-18.2
23,CCCn1c2c(c(O)c(C(=O)Nc3ccc(OCC)cc3)c1=O)CCCC2,0.963
24,COCCNC(=O)c1cc2c(=O)n(C)c3ccccc3c2n1C,6.53
